Experimental data reported in the supplement of paper PMC12217912.
The other results are listed elsewhere or left out. The full chains were built here from the parent and the listed change. Values near 0.05 are background.

B1: TEV protease; numbered along this chain (parent)
chain: MGESLFKGPRDYNPISSSICHLTNESDGHTTSLYGIGFGPFIITNKHLFRRNNGTLVVQSLHGVFKVKDTTTLQQHLVDGRDMIIIRMPKDFPPFPQKLKFREPQREERICLVTTNFQTKSMSSMVSDTSCTFPSGDGIFWKHWIQTKDGQCGSPLVSTRDGFIVGIHSASNFTNTNNYFTSVPKNFMELLTNQEAQQWVSGWRLNADSVLWGGHKVFMVKPEEPFQPVKEATQL

Variants of: B1
Assay: raw area under fraction-flipped curve 0-4 h after induction (AUC4h, not background-subtracted), DNA-recorder readout of cleavage of the substrate (dimensionless); higher = more cleavage of the substrate by the protease variant
Conditions: temperature: 34 °C; time window: 0-4 h after rhamnose induction
Description: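 In vivo DNA recorder in E. coli TOP10(DE3) ΔrhaA at 34 °C. Each TEVp single-site mutant (parent TEVp 0) is paired with a single-site variant of the 7-mer TEVs (canonical ENLYFQ|S). The substrate sits between flexible linkers in a Bxb1-sfGFP-TEVs-SsrA fusion, so cleavage stabilises Bxb1 and speeds flipping of a recombination array, read by NGS. The value is the raw area under the fraction-flipped curve over 0-4 h after rhamnose induction (AUC4h), with ≥20 reads per time point. It is not background-subtracted; inactive controls average about 0.047.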
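Further: Bxb1 expression induced with 0.2% (w/v) L-rhamnose at OD600 near 0.5, cultures sampled hourly, flipped fraction per protease–substrate barcode pair counted by paired-end Illumina sequencing.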

Variant | area with substrate CNLYFQS | area with substrate FNLYFQS | area with substrate HNLYFQS | area with substrate KNLYFQS | area with substrate RNLYFQS | area with substrate SNLYFQS | area with substrate TNLYFQS | area with substrate WNLYFQS | area with substrate YNLYFQS | area with substrate INLYFQS | area with substrate LNLYFQS | area with substrate MNLYFQS | area with substrate PNLYFQS | area with substrate GNLYFQS | area with substrate NNLYFQS | area with substrate VNLYFQS
MGESLFKGPRDYNPISSSICHLTNESDGHTTSLYGIGFGPFIITNKHLFRRNNGTLVVQSLHGVFKVKDTTTLQQHLVDGRDMIIIRMPKDFPPFPQKLKFREPQREERICLVTTNFQTKSMSSMVSDTSCTFPSGDGIFEKHWIQTKDGQCGSPLVSTRDGFIVGIHSASNFTNTNNYFTSVPKNFMELLTNQEAQQWVSGWRLNADSVLWGGHKVFMVKPEEPFQPVKEATQL [W141E] | 0.056 | 0.0443 | 0.0524 | 0.0541 | 0.0566 | 0.057 | 0.0496 | 0.0375 | 0.0543 |  |  |  |  |  |  | 
MGESLFKGPRDYNPISSSICHLTNESDGHTTSLYGIGFGPFIITNKHLFRRNNGTLVVQSLHGVFKVKDTTTLQQHLVDGRDMIIIRMPKDFPPFPQKLKFREPQREERICLVTTNFQTKSMSSMVSDTSCTFPSGDGIYWKHWIQTKDGQCGSPLVSTRDGFIVGIHSASNFTNTNNYFTSVPKNFMELLTNQEAQQWVSGWRLNADSVLWGGHKVFMVKPEEPFQPVKEATQL [F140Y] | 0.0824 |  | 0.0443 | 0.0699 |  | 0.064 | 0.067 | 0.0525 |  | 0.0614 | 0.068 | 0.0698 | 0.067 |  |  | 
MGESLFKGPRDYNPISSSICHLTNESDGHTTSLYGIGFGPFIITNKHLFRRNNGLLVVQSLHGVFKVKDTTTLQQHLVDGRDMIIIRMPKDFPPFPQKLKFREPQREERICLVTTNFQTKSMSSMVSDTSCTFPSGDGIFWKHWIQTKDGQCGSPLVSTRDGFIVGIHSASNFTNTNNYFTSVPKNFMELLTNQEAQQWVSGWRLNADSVLWGGHKVFMVKPEEPFQPVKEATQL [T55L] | 0.0567 |  | 0.055 | 0.0799 |  |  | 0.0614 |  | 0.0573 | 0.0698 |  | 0.0588 | 0.071 | 0.0532 | 0.0714 | 
MGESLFKGPRDYNPISSSICHLTNESDGHTTSLYGIGFGPFIITNKHLFRRNNGTLVVQSLHGVFKVKDTTTLQQHLVDGRDMIIIRMPKDFPPFPQKLKFREPQREERICLVTLNFQTKSMSSMVSDTSCTFPSGDGIFWKHWIQTKDGQCGSPLVSTRDGFIVGIHSASNFTNTNNYFTSVPKNFMELLTNQEAQQWVSGWRLNADSVLWGGHKVFMVKPEEPFQPVKEATQL [T115L] | 0.117 | 0.0422 | 0.0623 | 0.066 |  |  | 0.0593 | 0.0639 |  | 0.0633 |  | 0.0662 | 0.0674 | 0.0742 | 0.0464 | 
MGESLFKGPRDYNPISSSICHLTNESDGHTTSLYGIGFGPFIITNKHLFRRNNGTLVVQSLHGVFKVKDTTTLQQHLVDGRDMIIIRMPKDFPPFPQKLKFREPQREERICLFTTNFQTKSMSSMVSDTSCTFPSGDGIFWKHWIQTKDGQCGSPLVSTRDGFIVGIHSASNFTNTNNYFTSVPKNFMELLTNQEAQQWVSGWRLNADSVLWGGHKVFMVKPEEPFQPVKEATQL [V113F] | 0.0606 |  | 0.0596 |  |  |  | 0.0554 | 0.0683 | 0.0653 |  |  |  |  |  |  | 
MGESLFKGPRDYNPISSSICHLTNESDGHTTSLYGIGFGPFIITNKHLFRRNNGTLVVQSLHGVFKVKDTTTLQQHLVDGRDMIIIRMPKDFPPFPQKLKFREPQREERICLVITNFQTKSMSSMVSDTSCTFPSGDGIFWKHWIQTKDGQCGSPLVSTRDGFIVGIHSASNFTNTNNYFTSVPKNFMELLTNQEAQQWVSGWRLNADSVLWGGHKVFMVKPEEPFQPVKEATQL [T114I] | 0.0726 |  | 0.0575 |  |  | 0.071 | 0.002 | 0.0407 |  | 0.0711 |  |  | 0.0779 | 0.0661 | 0.0623 | 0.0447
MGESLFKGPRDYNPISSSICHLTNESDGHTTSLYGIGFGPFIITNKHLFRRNNGTLVVQSLHGVFKVKDTTTLQQHLVDGRDMIIIRMPKDFPPFPQKLKFREPQREERICLVTTNFQTKSMSSMVSDTSCTFPSGDGIFWKHWIQTKDGQCGSPLVSTRDGFIVGIHSASNFTNTNNYFTSVPKNFMELLTNQEAQQWVSGWRLNADSVLPGGHKVFMVKPEEPFQPVKEATQL [W212P] | 0.0421 | 0.0641 |  | 0.0543 |  | 0.0563 |  | 0.0556 |  |  |  |  |  | 0.048 |  | 
MGESLFKGPRDYNPISSSICHLTNESDGHTTSLYGIGFGPFIITNKHLFRRNNGTLVVQSLHGVFKVKDTTTLQQHLVDGRDMIIIRMPKDFPPFPQKLKFREPQREERICLVTTNFQTKSMSSMVSDTSCTFPSGDGIFWKHWIQTKDGQCGKPLVSTRDGFIVGIHSASNFTNTNNYFTSVPKNFMELLTNQEAQQWVSGWRLNADSVLWGGHKVFMVKPEEPFQPVKEATQL [S154K] | 0.0667 | 0.0474 | 0.0487 | 0.0563 |  | 0.0523 | 0.0553 | 0.0525 |  | 0.0567 | 0.0572 | 0.0557 |  | 0.0582 | 0.0693 | 
MGESLFKGPRDYNPISSSICHLTNESDGHTTSLYGIGFGPFIITNKHLFRRNNGTLVVQSLHGVFKVKDTTTLQQHLVDGRDMIIIRMPKDFPPFPQKLKFREPQREERICLVTTNFQTKSMSSMVSDTSCTFPSGDGIFWKHWIQTKDGQCGSPLVSTRDGFIVGIHSASTFTNTNNYFTSVPKNFMELLTNQEAQQWVSGWRLNADSVLWGGHKVFMVKPEEPFQPVKEATQL [N172T] | 0.0682 |  | 0.0597 |  |  |  |  |  | 0.0593 | 0.0616 | 0.0674 | 0.0593 |  |  |  | 0.0594
MGESLFKGPRDYNPISSSICHLTNESDGHTTSLYGIGFGPFIITNKHLFRRNNGTLVVQSLHGVFKVKDTTTLQQHLVDGRDMIIIRMPKDFPPFPQKLKFREPQREERICLVTTNFQTKSMSSMVSDTSCTFPSGDGIFWKHWIQTKDGQCGSPLVSTRDGFIVGIHSASNFTNTNNYFTSVPKDFMELLTNQEAQQWVSGWRLNADSVLWGGHKVFMVKPEEPFQPVKEATQL [N186D] | 0.073 |  | 0.0647 | 0.0768 |  |  | 0.0667 | 0.0516 |  | 0.0609 | 0.0655 | 0.0581 | 0.0471 |  | 0.0635 | 
